Results: the supplement of paper PMC3334620
In all, about 33,000 sequences were measured (“E-score (-0.5 to 0.5)”: median about -0.016, highest 2% from about 0.31 on). Some of the results follow.

target: Cst6 (UniProt P40535); test: PBM E-score (8-mer binding enrichment) (E-score (-0.5 to 0.5)); higher = stronger / more preferred TF binding; most listed sequences are background and not binding sites; conditions: protein concentration: 200 nM; construct: GST-DNA-binding domain
In short: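 Universal all-10-mer Agilent arrays, double-stranded by primer extension on fresh or once-stripped slides, were probed with about 100-200 nM GST-tagged yeast transcription factors made by PURExpress. Fluorescent anti-GST detected bound protein, and masliner normalised the scans. E-scores from the Universal PBM Analysis Suite were given to each ungapped eight-base word pooled with its reverse complement.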

Sequence	PBM E-score
AGATAGCG	-0.0262
AACGACCG	-0.26
AGTAAATA	0.12
ATCTCTGC	0.0476
GTTCATTA	0.18
GTTTAGAA	0.0297
CAGTCTTA	0.0306
GGCCCGCC	-0.281
GAAAATAA	0.204
CATTGCTC	-0.0352
GAGACCCA	-0.0946
ACCAGGTG	-0.0713
AACTAAGC	0.0593
GAAAACTC	-0.0218
ATTCGTTC	0.165
ATCTGAGC	-0.0846
CTGAGATC	-0.0878
AGAAGGAC	-0.272
CGAGGCAG	0.0332
ATTTCAAC	0.104
TCATGCGA	0.0384
AAGTTGGG	-0.133
TACCTCTA	-0.06
CTCCGAGA	-0.162
ACGACGGA	0.0762

Sequence	PBM E-score
CAGGGAGA	-0.227
GGAAACTA	-0.122
ATTTCGCG	0.156
AACTCTGC	-0.123
AAAATGCT	0.0838
ATCAGTGA	0.136
GGAGTTAA	-0.00612
CGATGTCC	-0.159
CGTGGTCC	0.00953
CCTATGAC	0.221
AGAAGGTA	0.153
AGTTGAGC	-0.109
CTGGCGAA	-0.114
CCACAGGG	-0.337
AAGTCGAG	-0.0841
ACGGTCTA	-0.0035
ACGTATTG	0.238
GCACGGAC	0.0246
TGCTTACA	-0.0377
CGCGTCTA	0.0834
AGCAACAG	-0.0878
GCTCCGGA	-0.15
CACTGTAA	0.123
CTGACACA	0.0411
ATGTTCAG	-0.0979

Sequence	PBM E-score
ACAAGAGT	0.00565
ATAAGAAG	0.265
GAGGGGGC	-0.345
ATACGCCC	-0.169
CATTACTA	0.177
AGGTTCTA	-0.0425
ATCCACGA	-0.0398
CAAGCAGC	-0.179
CATATTGG	0.0223
CGATAGAA	0.0254
CTTGGCGC	-0.00157
GAAATCAA	0.147
CAGTTCGC	-0.0109
AATAAAGC	0.156
AGGATCGG	-0.275
AGACCCGC	-0.0869
GATCAGCA	-0.029
TAAATCAA	0.181
AGACCCCA	-0.105
ACCGGAGG	-0.266
ATGAGACG	-0.0685
TGAGCCCA	-0.238
ACAGAGGA	-0.00047
ACGGATCG	-0.0348
TACGCTGA	0.0731

Sequence	PBM E-score
AGCACGGC	0.198
ACAGGAGT	0.0555
GAGTCCCC	-0.444
ATCCAATC	0.033
ACTTAGAA	-0.073
CAGCCTGA	0.0626
CCCATAAA	-0.0662
ACTTTTAC	0.218
GTCAGAGA	0.029
TTATGGAA	0.0709
ATGCAAAC	0.0481
ATTGACGA	0.249
GTGGGCTA	-0.0963
AGAAGTCG	-0.247
CATGTCTA	-0.118
ACATGCAT	0.0333
CCCACCGG	-0.266
GTGGATGA	0.0886
CGCCTGTA	-0.197
ATCCGGAG	0.001
AAACAATG	0.212
AATAAATG	0.302
AATCTTAA	0.0728
CGGCGAAA	0.15
CGGGCTGA	-0.197

Sequence	PBM E-score
AGACTTAA	-0.0892
AGAAATAA	0.199
AATGGTGA	0.184
GCCATAGA	-0.159
GAACAGAC	0.0339
GTTGGGAA	-0.0904
GGGATATA	-0.0165
AGCCGGGC	-0.185
CGCTCAAC	-0.0529
ACATTCGA	-0.0086
ATAATAAT	0.238
AGCAGGAT	0.0101
ACCCCCGC	-0.33
GATGCTTA	-0.0146
AGTCAACC	-0.219
GGCTGCAC	-0.173
GGCATTAA	0.11
AAGTATCT	0.00244
GCGCAGAA	0.177
CGTAGGAG	-0.0275
ACTGGTCC	-0.251
CACGTCAG	0.449
ATAACTAA	0.174
ATGTTTAC	0.161
AAACCTTG	0.0686

Sequence	PBM E-score
TCCATCAA	0.135
GGAGGTGA	0.18
AAAGTATT	0.127
CGGTGTAA	-0.0925
CACGCGCC	0.12
GGTATAGA	-0.18
GTGGGTAA	-0.135
GACAGGCA	-0.115
ACTGAAGT	-0.0347
ATTCGATC	0.153
AGCCCCGA	-0.172
ATCATAAG	0.132
TAGGCCAA	-0.149
GAGCAGGC	-0.245
GCTGGCAA	-0.106
ATTAGTGC	0.2
TCAGGCGA	-0.0441
CACAGCGG	0.00487
AATAGGGA	-0.312
GAACAATA	0.234
ATGCCAAC	0.0227
CAACGATA	-0.0093
AAATCTAG	-0.0771
GCGACTGA	-0.145
GTGTTAGA	-0.0843

Sequence	PBM E-score
AGGAGTCG	-0.221
CAGCACAG	0.149
AGATCCGC	0.0272
ATTATAAC	0.0838
CTGGGCCA	-0.406
CCTGGATC	-0.334
CTGCGCAG	-0.322
ATCTTCTC	-0.0503
CTCACGCA	0.258
CCATGCCC	-0.234
ACCCGCAA	-0.202
ACTTGTTA	0.0761
CGAACCTA	-0.165
AGACTAAA	0.0784
CACGCCAG	-0.212
ATCCGAGC	-0.23
CCACGAAG	-0.152
CTTTACCA	-0.0956
CCGTGCCG	0.205
CGTACAAA	0.175
CCTGCCCG	-0.108
AGAATGTG	0.0949
